Data taken from the supplement of paper PMC4967469.
A lower IC50 marks a more sensitive line; a fit beyond the top or the lowest dose is shown as a bound at that dose. AUC, from the same fit, is the share of area under the viability curve across the 256-fold dose range; the more sensitive the line, the further below 1. For some of these results: Any top dose called inferred was derived from the fitted curves, not read from the paper. For some of these results: Where an entry number is given, a second screen of the drug exists; the two often differ.

Key:
Experiment in all cases: Viability of human cancer cell lines after 72 h of drug (GDSC screen)
GSK690693 = compound: CCn1c(-c2nonc2N)nc2c(C#CC(C)(C)O)ncc(OC[C@H]3CCCNC3)c21 [GSK690693]; conditions: top dose 10.24 µM; top dose inferred
Procedure: (§1)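 Human cancer cell lines in 384-well plates, medium with 10% serum, drug for 72 h over a 256-fold dose range (nine 2-fold or five 4-fold steps up to the top dose). Adherent lines were fixed and stained with the nucleic acid dye Syto60, suspension lines read with resazurin; signal relative to control wells, capped at 0 and 100%. One two-parameter sigmoid per drug and line, fitted in a mixed model over all curves with the slope shared within a line.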

PI-103 = compound: Oc1cccc(-c2nc(N3CCOCC3)c3oc4ncccc4c3n2)c1 [PI-103]; conditions: top dose 10.24 µM
Procedure: as §1

UNC0638 = compound: COc1cc2c(NC3CCN(C(C)C)CC3)nc(C3CCCCC3)nc2cc1OCCCN1CCCC1 [UNC0638]
Procedure: as §1

BX-795 = compound: O=C(NCCCNc1nc(Nc2cccc(NC(=O)N3CCCC3)c2)ncc1I)c1cccs1 [BX-795]; conditions: top dose 5 µM; top dose inferred
Procedure: as §1

SB-505124 = compound: Cc1cccc(-c2[nH]c(C(C)(C)C)nc2-c2ccc3c(c2)OCO3)n1 [SB-505124]; conditions: top dose 10 µM; top dose inferred
Procedure: as §1

[1] = top dose 20 µM, screen: GDSC drug entry 1236, top dose inferred
[2] = top dose 40 µM, screen: GDSC drug entry 245

Cell Line	AUC (GSK690693)	IC50 (GSK690693) [µM]	AUC (PI-103)	IC50 (PI-103) [µM]	AUC (UNC0638; [1])	IC50 (UNC0638; [1]) [µM]	AUC (UNC0638; [2])	IC50 (UNC0638; [2]) [µM]	AUC (BX-795)	IC50 (BX-795) [µM]	AUC (SB-505124)	IC50 (SB-505124) [µM]
786-0 (kidney, adherent)	0.606	1.22	0.262	0.143	0.78	7.55	0.638	5.79	0.895	> 5	0.977	> 10
A172 (glioma, adherent)	0.989	> 10.2	0.972	> 10.2	0.825	11.4	0.783	16.1	0.833	3.05	0.97	> 10
A427 (non-small cell lung carcinoma, adherent)	0.987	> 10.2	0.971	> 10.2	0.817	11.4	0.868	37.1	0.778	2.05	0.964	> 10
A673 (rhabdomyosarcoma, adherent)	0.99	> 10.2	0.732	2.69	0.522	1.43	0.986	> 40	0.979	> 5	0.92	> 10
BCPAP (thyroid, adherent)	0.987	> 10.2	0.734	2.75	0.704	4.4	0.655	6.41	0.804	–	0.95	> 10
BHY (head and neck, adherent)	0.968	> 10.2	0.558	0.924	0.948	> 20	0.832	25.8	0.882	> 5	0.971	> 10
BPH-1 (prostate, adherent)	0.814	6.36	0.254	0.116	0.822	13.3	0.697	9.52	0.792	2.54	0.852	9.07
CAL-27 (head and neck, adherent)	0.983	> 10.2	0.707	2.48	0.889	> 20	0.856	33.2	0.873	4.97	0.903	> 10
CAL-33 (head and neck, adherent)	0.935	> 10.2	0.463	0.509	0.872	19	0.965	> 40	0.841	3.48	0.94	> 10
CAL-54 (kidney, adherent)	0.985	> 10.2	0.956	> 10.2	0.983	> 20	0.966	> 40	0.956	> 5	0.907	> 10
CHP-134 (neuroblastoma, suspension)	0.926	> 10.2	0.521	0.739	–	–	0.604	5.22	0.756	2.13	–	–
CHP-212 (neuroblastoma, adherent)	0.988	> 10.2	0.936	> 10.2	0.937	> 20	0.875	34.2	0.638	0.73	0.987	> 10
ChaGo-K-1 (non-small cell lung carcinoma, adherent)	0.97	> 10.2	0.944	> 10.2	0.881	> 20	0.875	> 40	0.972	> 5	0.974	> 10
DOK (head and neck, adherent)	0.957	> 10.2	0.79	7.37	0.936	> 20	0.975	> 40	0.8	4.02	0.956	> 10
DU-145 (prostate, adherent)	0.985	> 10.2	0.86	> 10.2	0.982	> 20	0.93	> 40	0.984	> 5	0.959	> 10
GAMG (glioma, adherent)	0.812	5.81	0.286	0.153	0.928	> 20	0.73	11.7	0.794	2.43	0.969	> 10
H2591 (mesothelioma, adherent)	0.982	> 10.2	0.972	> 10.2	0.822	16.6	0.744	15.8	0.884	> 5	0.98	> 10
HCC1806 (breast, adherent)	0.97	> 10.2	0.96	> 10.2	0.816	9.99	0.772	14.2	0.943	> 5	0.988	> 10
HCT-116 (large intestine, adherent)	0.946	> 10.2	0.488	0.594	0.793	8.59	0.747	12.2	0.881	4.79	0.971	> 10
HLE (liver, adherent)	0.987	> 10.2	0.898	> 10.2	0.903	> 20	0.787	16.3	0.876	4.49	0.982	> 10
HT-29 (large intestine, adherent)	0.969	> 10.2	0.973	> 10.2	0.75	6.54	0.657	6.81	0.988	> 5	0.986	> 10
HeLa (cervix, adherent)	0.987	> 10.2	–	–	0.971	> 20	0.88	38.2	0.892	> 5	0.903	> 10
HuH-7 (liver, adherent)	0.987	> 10.2	0.976	> 10.2	0.855	15.8	0.839	27.1	0.865	4.39	0.883	> 10

Cell Line	AUC (GSK690693)	IC50 (GSK690693) [µM]	AUC (PI-103)	IC50 (PI-103) [µM]	AUC (UNC0638; [1])	IC50 (UNC0638; [1]) [µM]	AUC (UNC0638; [2])	IC50 (UNC0638; [2]) [µM]	AUC (BX-795)	IC50 (BX-795) [µM]	AUC (SB-505124)	IC50 (SB-505124) [µM]
LN-405 (glioma, adherent)	0.958	> 10.2	0.546	0.881	0.905	> 20	0.761	17.7	0.922	> 5	0.975	> 10
M059J (glioma, adherent)	0.98	> 10.2	0.743	3.41	0.904	> 20	0.826	26.9	0.739	1.61	0.98	> 10
MCF7 (breast, adherent)	0.986	> 10.2	–	–	0.962	> 20	0.981	> 40	0.931	> 5	0.98	> 10
MDA-MB-157 (breast, adherent)	0.988	> 10.2	0.904	> 10.2	0.967	> 20	0.913	> 40	0.74	1.55	0.985	> 10
MDA-MB-231 (breast, adherent)	0.986	> 10.2	0.871	> 10.2	0.956	> 20	0.859	36.6	0.881	> 5	0.985	> 10
ME-180 (cervix, adherent)	0.535	0.799	0.209	0.0851	0.978	> 20	0.895	> 40	0.894	> 5	0.924	> 10
MFE-319 (endometrium, adherent)	0.978	> 10.2	0.54	0.819	0.979	> 20	0.965	> 40	0.95	> 5	0.988	> 10
MKN1 (stomach, adherent)	0.966	> 10.2	0.638	1.57	0.833	13.9	0.846	31.7	0.883	> 5	0.953	> 10
MOLT-13 (T-cell lymphoblastic leukaemia, suspension)	0.883	8.69	0.817	4.86	0.694	4.06	0.577	3.95	0.726	1.24	0.96	> 10
NCI-H522 (lung adenocarcinoma, adherent)	0.978	> 10.2	0.939	> 10.2	0.872	> 20	0.877	> 40	0.884	> 5	0.977	> 10
NCI-H2023 (lung adenocarcinoma, adherent)	0.966	> 10.2	0.967	> 10.2	0.757	8.47	0.838	37	0.87	> 5	0.979	> 10
NCI-H2030 (lung adenocarcinoma, adherent)	0.964	> 10.2	0.571	1.03	0.717	5.68	0.686	8.99	0.924	> 5	0.957	> 10
NCI-H2085 (lung adenocarcinoma, adherent)	0.935	> 10.2	0.21	0.0824	0.985	> 20	0.784	18.5	0.844	4.02	0.985	> 10
NUGC-3 (stomach, adherent)	0.961	> 10.2	0.77	4.38	0.79	10.2	0.773	17.5	0.927	> 5	0.964	> 10
OAW-28 (ovary, adherent)	0.977	> 10.2	0.534	0.815	0.956	> 20	0.762	18	0.931	> 5	0.98	> 10
OSC-19 (head and neck, adherent)	0.982	> 10.2	0.805	5.4	0.984	> 20	0.906	> 40	0.782	2.19	0.984	> 10
OVCAR-3 (ovary, adherent)	0.987	> 10.2	0.987	> 10.2	0.811	11.9	0.987	> 40	0.9	> 5	0.985	> 10
OVCAR-8 (ovary, adherent)	0.982	> 10.2	0.446	0.462	0.836	11.4	0.67	7.04	0.893	4.88	0.989	> 10
PANC-10-05 (pancreas, adherent)	0.823	8.43	0.342	0.205	0.959	> 20	0.728	13.6	0.947	> 5	0.979	> 10
PC-3 (prostate, adherent)	0.866	> 10.2	–	–	0.969	> 20	0.869	> 40	0.834	4.31	0.971	> 10
PCI-6A (head and neck, adherent)	0.963	> 10.2	0.963	> 10.2	0.896	> 20	0.679	7.81	0.717	1.27	0.986	> 10
RERF-GC-1B (stomach, adherent)	0.923	> 10.2	0.71	2.71	0.852	18.4	0.707	10.4	0.962	> 5	0.983	> 10
